Experimental data taken from article PMC10668032.
This is one part of the list. At the low end of the ranking the order means little.

The sequences below were run against SIX1-Q177R homeodomain (UniProt Q15475) (assay: universal protein binding microarray). Settings: Universal all-10-mer PBM (8x60K, AMADID 030236), 300 nM GST-tagged protein, Alexa Fluor 488 anti-GST; buffer, salt, pH and temperature not stated; high values mean tight binding; most listed sequences are background and not binding sites; double strand, one strand shown.

Sequence | binding signal
GCTTGTCA | -0.115 E-score
AGCTTTAC | -0.184 E-score
GAAGAGCC | -0.134 E-score
CGGTCCCC | -0.0297 E-score
CCTCCCCA | 0.0488 E-score
AAGCTCTA | -0.0602 E-score
GTTCGGCA | 0.0942 E-score
ACAGCTGA | -0.0986 E-score
GCAAGTCA | -0.111 E-score
GAAAAGCA | -0.158 E-score
ATTTGGAC | -0.0886 E-score
AATGGGTC | -0.11 E-score
GCACTGCA | -0.133 E-score
AAACACTA | 0.298 E-score
ATGCTTTC | -0.138 E-score
ACCTATAG | 0.0231 E-score
AATCTGAT | -0.0316 E-score
CGTTAGGA | -0.135 E-score
ACGCACAT | -0.11 E-score
ACTTTTCA | -0.094 E-score
AGAGACAC | 0.411 E-score
ACTTCCGA | 0.0231 E-score
AAACATTG | -0.157 E-score
AATCACAA | -0.217 E-score
CAAGGACC | 0.126 E-score

Sequence | binding signal
CCATTTCA | -0.129 E-score
GTATGACA | 0.257 E-score
ACTCTAAG | -0.0416 E-score
AACGGAAA | -0.172 E-score
CCGCAATA | -0.0576 E-score
GTAGTTGA | 0.12 E-score
CAGCGGCC | -0.317 E-score
GCAGTAAC | -0.12 E-score
AGAGCGTG | 0.189 E-score
GCCACTAC | -0.0291 E-score
TCAGCGAA | -0.139 E-score
ACATTCAC | -0.0952 E-score
CAAATTCC | -0.234 E-score
ACCCAACT | 0.0776 E-score
CGCGAGAG | -0.108 E-score
AATTGGCC | -0.193 E-score
CCACAGCG | 0.105 E-score
GGACGCCA | 0.0277 E-score
AGACAGCG | -0.138 E-score
AAGCTATC | -0.223 E-score
CCGAGAGA | 0.138 E-score
GCTCCGAA | -0.0737 E-score
AATAGAAT | -0.341 E-score
CGCGTGCA | 0.00666 E-score
CTAACCAG | 0.0712 E-score

Sequence | binding signal
ACATCTGA | -0.0519 E-score
CCTTCAGA | -0.0779 E-score
CCCCAGAA | 0.137 E-score
ATCGCTGC | -0.147 E-score
ACTCTACA | 0.296 E-score
ATCCTCAC | 0.00347 E-score
CAAGCTCC | -0.142 E-score
ACTAACCA | 0.0953 E-score
TGCCCGCA | -0.0887 E-score
GTTCAAAA | -0.113 E-score
ATAGTTTG | 0.0043 E-score
CAGATGCG | -0.263 E-score
GCCAGGGA | -0.158 E-score
CGGCAACA | 0.0343 E-score
GAAAAATC | -0.164 E-score
ATAATGGA | -0.154 E-score
ATTTCAAG | -0.168 E-score
TATAGAGA | -0.138 E-score
AGATACCG | 0.139 E-score
CATCAGGC | -0.13 E-score
CGCTCTAC | 0.157 E-score
CAGAAGGA | -0.0839 E-score
AGCATTTC | -0.18 E-score
CATATCGG | -0.0523 E-score
ACTGTATG | -0.0846 E-score

Sequence | binding signal
GGAATTAA | 0.0603 E-score
CGTTAGAA | -0.147 E-score
CAGGTAAC | 0.0387 E-score
CCGTGCCA | 0.0532 E-score
CACAGTTC | 0.108 E-score
CAGATTAC | 0.0021 E-score
ACGGAGAT | -0.0927 E-score
CTCTAACA | 0.094 E-score
AGAGAAGG | -0.136 E-score
GAGAGTGA | -0.246 E-score
ATCCAAAC | 0.011 E-score
ATTTATCC | 0.000225 E-score
CTCAGGAA | -0.128 E-score
AATGTGCT | -0.249 E-score
AGTTCCAA | -0.182 E-score
ACTTGGGC | -0.271 E-score
CCGCCCAG | 0.165 E-score
AAGGCTTG | -0.281 E-score
CTACCGAA | -0.0994 E-score
CAATGAAC | 0.0616 E-score
ATACATAC | 0.139 E-score
GCGAGTGA | -0.0991 E-score
AGCGACGG | 0.0201 E-score
AACAGGGC | -0.246 E-score
CAAAGTAC | -0.0414 E-score

Sequence | binding signal
GCATCGAC | -0.0519 E-score
CGCCCAAG | 0.0949 E-score
CTGTAGTC | -0.153 E-score
CGATCCAA | -0.0315 E-score
CGCCGGAG | 0.0618 E-score
GAGCCCCA | -0.0131 E-score
GACCAGAA | -0.00466 E-score
CCGCCTGA | 0.131 E-score
AGATGGAA | -0.124 E-score
ATATAATA | -0.147 E-score
CGCTGGGC | 0.04 E-score
ATCCGAAT | -0.0752 E-score
CCATTGAC | 0.0458 E-score
CATCTTAC | -0.0989 E-score
TAAGCCTA | -0.154 E-score
ACGGGCTG | -0.0589 E-score
GACGCGCA | -0.101 E-score
ATTATCGA | -0.0214 E-score
GACGACAC | 0.429 E-score
CACCTACA | 0.41 E-score
ATAAAAAT | -0.0813 E-score
AATGACGT | -0.06 E-score
AGGCGAGG | -0.0664 E-score
ACGACCGC | -0.0834 E-score
ATAATAAT | -0.105 E-score

Sequence | binding signal
AAAGTGCC | -0.0989 E-score
TAGTCCAA | -0.0607 E-score
TACTCAGA | -0.109 E-score
CATCTGAA | -0.131 E-score
GGGCACAA | 0.0725 E-score
GGTCGTCA | -0.113 E-score
AGGGCGAT | -0.0825 E-score
GAGTACTC | 0.174 E-score
CGCAGAGA | -0.0242 E-score
TACAGGAA | 0.0366 E-score
CGCATTTA | -0.169 E-score
AACTCTCA | -0.2 E-score
AGACGCCC | 0.121 E-score
TCTGTCCA | -0.1 E-score
AATAATGG | -0.183 E-score
AAGCAAGT | -0.213 E-score
ACGAGTGG | 0.115 E-score
ATGGAACC | -0.0911 E-score
ATTGACGG | -0.148 E-score
AAGAGGAA | -0.238 E-score
ACAGCAGG | -0.0423 E-score
TAAGGCGA | -0.0477 E-score
AGACCCTA | 0.195 E-score
GCGCGTAA | -0.0166 E-score
ATCTGACC | 0.00462 E-score

Sequence | binding signal
ACGCAATA | 0.117 E-score
CGTGGCGA | -0.124 E-score
AGTAAACG | 0.0279 E-score
CGACCTGA | -0.118 E-score
CTGCTATA | -0.00617 E-score
CGGTTAAG | 0.00597 E-score
CGACAACG | -0.281 E-score
ACGTGGCA | -0.097 E-score
GAGGTATA | 0.18 E-score
AGCGCGCA | -0.0902 E-score
GCGGCTAA | -0.0814 E-score
ACTTTCGG | -0.0985 E-score
GTGTTGAA | 0.396 E-score
AACACTGA | 0.35 E-score
AGACTAAC | -0.206 E-score
AAGAATTG | -0.297 E-score
AATTCTAT | -0.229 E-score
AACGCACG | -0.116 E-score
GCGCGTAC | 0.0558 E-score
GACTACGC | -0.0927 E-score
ACATGTGA | -0.252 E-score
ATTATCTG | -0.193 E-score
AATTTTCT | -0.155 E-score
ATTCCTTA | -0.183 E-score
TGCGAAAA | 0.0459 E-score

Sequence | binding signal
GGAAACCC | 0.011 E-score
CGTGGAAG | -0.0551 E-score
CGTCGATC | -0.0255 E-score
CGCACCCA | 0.193 E-score
AAGGACTT | -0.0704 E-score
GAAGTCGC | -0.0881 E-score
AAGGCACA | -0.111 E-score
CAAGTCTA | -0.15 E-score
ACGATATC | -0.111 E-score
ACTCCTGA | 0.206 E-score
CCTCAAGC | -0.0163 E-score
GAAAAACC | -0.106 E-score
ACCCCGAC | 0.265 E-score
GAGCTGGA | 0.0361 E-score
TGCTTAAA | -0.109 E-score
AAAACCGT | -0.0744 E-score
AATCTCGC | -0.319 E-score
TACGACTA | -0.07 E-score
AAACTCGG | 0.119 E-score
AGTGCCGA | -0.188 E-score
ATCGCGAA | -0.0326 E-score
CGCCAGCA | -0.155 E-score
GAGTTTAA | 0.0842 E-score
TACCAGTA | 0.0235 E-score
GAGGATGA | -0.115 E-score

Sequence | binding signal
ACGTGAGT | -0.0165 E-score
CGATACAG | -0.0585 E-score
CTCAACAG | -0.167 E-score
CAGGAGCC | -0.0536 E-score
GAGATCTC | -0.374 E-score
GCTCGATA | -0.089 E-score
CCTTGCCA | -0.133 E-score
ACTGGGCG | 0.192 E-score
GGCTCCGA | -0.0309 E-score
AGCATTAC | -0.00506 E-score
AACAGTCA | -0.259 E-score
AGATAAAG | -0.0094 E-score
CAATCATG | 0.0573 E-score
TAGCGCTA | -0.143 E-score
ACCCCGGA | 0.299 E-score
ATTGGTAC | 0.0756 E-score
CGGATCCA | 0.232 E-score
ATCTCTGA | 0.0129 E-score
ATGTTTGC | -0.318 E-score
